The list shows a part of the results.

The test system of one experiment is HSkMC. As to the kind of experiment: cytotoxicity call (relative viability < 0.9). To be noted: 10 µM.
The subject of the next experiment is HepG2. In words: cytotoxicity call (relative viability < 0.9). To be noted: 10 µM.
For the next experiment, the system named is S. aureus RN4220. In words: growth inhibition call (relative growth <= 0.2). To be noted: 50 µM.

In the case of `C[C@H](N)C(=O)N1CCc2ccccc2C1`, the cytotoxicity call with HSkMC and in the experiment with HepG2 was “inactive” each time. For the same molecule, in the experiment with S. aureus RN4220, the growth inhibition call was “inactive”.

As for `C[C@H](CO)N1C[C@H](C)[C@@H](CN(C)S(=O)(=O)c2ccc(F)cc2)Oc2ccc(N(C)C)cc2CC1=O`, the cytotoxicity call in the experiment on HSkMC and in the experiment with HepG2 was “inactive” throughout. For the same molecule, the growth inhibition call in the experiment with S. aureus RN4220 was “inactive”.

As to `C[C@H]1CN([C@@H](C)CO)C(=O)Cc2cc(NS(=O)(=O)c3ccc(Cl)cc3)ccc2O[C@@H]1CN(C)S(C)(=O)=O`, the cytotoxicity call in the experiment on HSkMC and with HepG2 was “inactive” each time. Further, the growth inhibition call in the experiment with S. aureus RN4220 was “inactive”.

As for `CCS(=O)(=O)Nc1ccc2c(c1)C(=O)N(C)C[C@@H](OC)[C@@H](C)CN(Cc1ccccn1)[C@@H](C)CO2`, the cytotoxicity call in the experiment on HSkMC and in the experiment on HepG2 was “inactive” throughout. Further, the growth inhibition call with S. aureus RN4220 was “inactive”.

For the molecule `C[C@@H]1CN([C@H](C)CO)C(=O)Cc2cc(NC(=O)CCN3CCOCC3)ccc2O[C@@H]1CN(C)Cc1ccccc1`, the cytotoxicity call in the experiment with HSkMC and in the experiment on HepG2 was “inactive” in each case. The growth inhibition call in the experiment with S. aureus RN4220 was “inactive”.

As to `CC(=O)Oc1ccc(C(c2ccc(OC(C)=O)cc2)c2ccccn2)cc1`, the cytotoxicity call in the experiment with HSkMC and in the experiment with HepG2 was “inactive” in each case. Moreover, the growth inhibition call in the experiment with S. aureus RN4220 was “inactive”.

In the case of `C[C@@H]1CCCCO[C@H](CN(C)C(=O)Nc2ccc3c(c2)OCO3)[C@H](C)CN([C@@H](C)CO)C(=O)c2cc(NS(=O)(=O)c3ccc(Cl)cc3)ccc2O1`, the cytotoxicity call with HSkMC and in the experiment with HepG2 was “inactive” in each case. In addition, the growth inhibition call in the experiment with S. aureus RN4220 is “inactive”.

For `C[C@H](CO)N1C[C@H](C)[C@@H](CN(C)C(=O)Nc2cccc(F)c2)OCc2ccccc2-c2c(n(C)c3ccccc23)C1=O`, the cytotoxicity call in the experiment with HSkMC and with HepG2 was “inactive” each time. Further, the growth inhibition call with S. aureus RN4220 is “inactive”.

On to `C[C@@H]1CN([C@H](C)CO)C(=O)c2cc(NS(=O)(=O)c3ccc(F)cc3)ccc2O[C@H]1CN(C)C(=O)Nc1cccc2ccccc12`, for which the cytotoxicity call in the experiment with HSkMC and with HepG2 was “inactive” in each case. The growth inhibition call with S. aureus RN4220 was “inactive”.

`COc1ccccc1S(=O)(=O)N(C)C[C@@H]1Oc2cc(C#CCC(C)C)ccc2S(=O)(=O)N([C@H](C)CO)C[C@@H]1C`: the cytotoxicity call in the experiment with HSkMC was “inactive”. In addition, in the experiment with HepG2, the cytotoxicity call is “active”. For the same molecule, in the experiment with S. aureus RN4220, the growth inhibition call is “inactive”.

For the molecule `C[C@H]1CCCCO[C@@H](CN(C)CC2CCCCC2)[C@@H](C)CN([C@@H](C)CO)C(=O)c2cc(NC(=O)Nc3ccc4c(c3)OCO4)ccc2O1`, the cytotoxicity call with HSkMC and with HepG2 was “active” in each case. Moreover, the growth inhibition call in the experiment with S. aureus RN4220 is “inactive”.

For the molecule `COc1cc(N)ccn1`, the cytotoxicity call in the experiment with HSkMC is “inactive”. Also, the cytotoxicity call in the experiment on HepG2 was “active”. Further, the growth inhibition call in the experiment with S. aureus RN4220 is “inactive”.

With `C[C@@H]1CN([C@H](C)CO)C(=O)c2c(c3ccccc3n2C)-c2ccccc2CO[C@@H]1CN(C)C(=O)Nc1ccc(F)cc1`, the cytotoxicity call in the experiment with HSkMC and in the experiment with HepG2 was “inactive” throughout. Moreover, in the experiment on S. aureus RN4220, the growth inhibition call was “inactive”.

As to `COc1ccc(S(=O)(=O)N(C)C[C@@H]2Oc3c(NC(=O)NC(C)C)cccc3C(=O)N([C@H](C)CO)C[C@H]2C)cc1`, the cytotoxicity call in the experiment on HSkMC and in the experiment on HepG2 was “inactive” throughout. Also, the growth inhibition call with S. aureus RN4220 was “inactive”.

As to `C[C@@H]1CN([C@H](C)CO)C(=O)c2cc(/C=C/c3ccccc3)cnc2O[C@H]1CN(C)S(=O)(=O)c1cn(C)cn1`, the cytotoxicity call in the experiment on HSkMC and in the experiment on HepG2 was “inactive” throughout. In addition, in the experiment on S. aureus RN4220, the growth inhibition call is “inactive”.

For the molecule `C[C@H]1CN([C@@H](C)CO)C(=O)Cc2cc(NC(=O)Cn3cnnn3)ccc2O[C@@H]1CN(C)C(=O)Nc1cccc2ccccc12`, the cytotoxicity call in the experiment with HSkMC and in the experiment on HepG2 was “inactive” in each case. The growth inhibition call with S. aureus RN4220 is “inactive”.

For the molecule `COc1ccc(S(=O)(=O)Nc2ccc3c(c2)CC(=O)N([C@H](C)CO)C[C@H](C)[C@@H](CN(C)S(=O)(=O)c2cccs2)O3)cc1`, the cytotoxicity call in the experiment on HSkMC and in the experiment on HepG2 was “inactive” each time. In addition, the growth inhibition call with S. aureus RN4220 is “inactive”.

`COCC(=O)N1C[C@@H](C)[C@@H](OC)CN(C)C(=O)c2ccc(NC(=O)c3cc(C)on3)cc2OC[C@H]1C`: the cytotoxicity call in the experiment on HSkMC and in the experiment with HepG2 was “inactive” each time. In the experiment on S. aureus RN4220, the growth inhibition call is “inactive”.

Take `CN(C)CCOc1ccc([N+](=O)[O-])cn1`: the cytotoxicity call with HSkMC and with HepG2 was “inactive” each time. Further, in the experiment on S. aureus RN4220, the growth inhibition call is “inactive”.

In the case of `C[C@@H]1CN([C@H](C)CO)C(=O)c2cc(NS(=O)(=O)c3cccs3)ccc2O[C@@H](C)CCCCO[C@H]1CN(C)C(=O)NC1CCCCC1`, the cytotoxicity call in the experiment with HSkMC and in the experiment on HepG2 was “inactive” in each case. For the same molecule, the growth inhibition call in the experiment on S. aureus RN4220 is “inactive”.

With `C[C@@H]1CN([C@@H](C)CO)C(=O)c2cc(NC(=O)c3ccncc3)ccc2O[C@H]1CN(C)S(=O)(=O)c1cn(C)cn1`, the cytotoxicity call with HSkMC and in the experiment on HepG2 was “inactive” in each case. Also, the growth inhibition call with S. aureus RN4220 is “inactive”.

As for `CC(C)NC(=O)N[C@H]1CCCCNC1=O`, the cytotoxicity call in the experiment on HSkMC and with HepG2 was “inactive” throughout. Also, the growth inhibition call in the experiment on S. aureus RN4220 was “inactive”.

In the case of `Cc1noc(C)c1S(=O)(=O)N(C)C[C@H]1Oc2ccc(NS(=O)(=O)c3cn(C)cn3)cc2CC(=O)N([C@@H](C)CO)C[C@H]1C`, the cytotoxicity call with HSkMC and with HepG2 was “inactive” each time. Moreover, the growth inhibition call in the experiment on S. aureus RN4220 is “inactive”.

On to `C[C@@H]1CN([C@@H](C)CO)C(=O)c2cc(NC(=O)Nc3ccc4c(c3)OCO4)ccc2O[C@H]1CN(C)S(C)(=O)=O`, for which the cytotoxicity call in the experiment on HSkMC and with HepG2 was “inactive” each time. Moreover, in the experiment on S. aureus RN4220, the growth inhibition call is “inactive”.

For `Cc1noc(C)c1S(=O)(=O)Nc1ccc2c(c1)C(=O)N([C@@H](C)CO)C[C@H](C)[C@H](CN(C)S(=O)(=O)c1ccc(Cl)cc1)O2`, the cytotoxicity call with HSkMC and in the experiment with HepG2 was “inactive” in each case. Further, the growth inhibition call in the experiment on S. aureus RN4220 is “inactive”.

`C[C@H](CO)N1C[C@H](C)[C@@H](CN(C)Cc2ccc(-c3ccccc3)cc2)Oc2ccc(NS(=O)(=O)c3ccc(F)cc3)cc2CC1=O`: the cytotoxicity call in the experiment on HSkMC (human skeletal muscle cells) was “inactive”. The cytotoxicity call in the experiment with HepG2 is “active”. The growth inhibition call in the experiment with S. aureus RN4220 was “inactive”.

The record behind these values is the antibiotic and cytotoxicity screens of Wong et al. (2023).
